Measurements from ChEMBL document CHEMBL4888484, “Replenishing the malaria drug discovery pipeline: Screening and hit evaluation of the MMV Hit Generation Library 1 (HGL1) against asexual blood stage Plasmodium falciparum ,using a nano luciferase reporter read-out” (2022).
Out of some 150,000 compounds screened, about 540 (0.36%) showed an effect of 50% or more. This is one part of the list.

The compounds below were run on Plasmodium falciparum (assay: Primary screen in NF54 nanoGlo assay, in single point, at 2uM, 72h; a lower Z score goes with more inhibition). Settings: timepoint 72 hour.
Format: functional, Erythrocyte
For `COc1ccc(C(NC2CCNC2=O)c2ccccc2Cl)cc1` (configuration not stated), the “% Inhibition” value was -8% and the Z score was 0.85. In the case of `Cn1cc(NC(=O)N[C@H](c2ccccc2)C2CC2)ccc1=O`, the “% Inhibition” value is reported as -6% and the Z score is reported as 0.88. For `c1cn([C@H]2CCCN(Cc3nnc(C4CC4)s3)C2)nn1`, the “% Inhibition” value was -5% and the Z score was 1. `Cc1ccc(NS(=O)(=O)c2cc(-c3nc(-c4ccc(Cl)cc4)no3)cs2)c(C)c1` was tested, and the “% Inhibition” value was -11% and the Z score was 1.26. In the case of `OC[C@H]1CCCN1c1ncnc2ccc(F)cc12`, the “% Inhibition” value is reported as -4% and the Z score is reported as 0.44. `CN1CCN(c2cc(Nc3ccccc3)ncn2)CC1` was tested, and the “% Inhibition” value was -16% and the Z score was 1.97. `CNc1ncccc1C(=O)N[C@@H]1CCOC[C@@H]1Oc1ccc(C)nc1` was tested, and the “% Inhibition” value was 2% and the Z score was -0.33. `COC[C@H](C)N(Cc1cccc2ccccc12)C(=O)Cn1nnnc1N` was tested, and the “% Inhibition” value was -17% and the Z score was 2.22. `COc1cccc(OC)c1C(=O)Nc1ccc(-n2ccnc2C(C)C)cc1` was tested, and the “% Inhibition” value was 10% and the Z score was -1.34. For `Cc1cc(CN(C)C(=O)c2csc(-c3ccco3)n2)no1`, the “% Inhibition” value was -6% and the Z score was 0.75. For `Cc1cnccc1NCCNCc1nc(C(C)C)cs1`, the “% Inhibition” value was 6% and the Z score was -0.58. In the case of `Cc1cccc(CN2CCC(N(c3ccc(F)cc3)S(=O)(=O)c3cccc(C)c3)CC2)c1`, the “% Inhibition” value is reported as -4% and the Z score is reported as 0.34. With `COc1ccc(CNC(=O)[C@H]2Nc3cc(F)ccc3S(=O)(=O)N2)cc1` the “% Inhibition” value was -12% and the Z score was 2.25. In the case of `COc1cccc(CO[C@H]2CCCN(C(=O)CC(C)C)C2)c1`, the “% Inhibition” value is reported as -9% and the Z score is reported as 1.09. With `CN(Cc1nccs1)C1CCC(CO)CC1` (configuration not stated) the “% Inhibition” value was -13% and the Z score was 1.7. In the case of `CCOC(=O)N1CCC(NC(=O)c2c[nH]c3cc(Cl)ccc23)CC1`, the “% Inhibition” value is reported as -5% and the Z score is reported as 0.99. In the case of `COc1cc(C)nc(N2CCC(O)(c3ccnn3C)CC2)n1`, the “% Inhibition” value is reported as 1% and the Z score is reported as -0.14. For `O=C(O)Cn1nc(C2CCCC2)nc1CCCc1cn[nH]c1`, the “% Inhibition” value was -2% and the Z score was 0.38. In the case of `CCCCNC(=O)CN(C)C(=O)c1cnc(NCC)nc1`, the “% Inhibition” value is reported as 10% and the Z score is reported as -1.88. In the case of `O=C(Nc1cn[nH]c1)[C@@H]1CCCN1c1ncnc2sccc12`, the “% Inhibition” value is reported as -7% and the Z score is reported as 1.37. In the case of `O=C(Nc1ccccc1NCC(=O)N1CCNC1=O)c1cccs1`, the “% Inhibition” value is reported as 1% and the Z score is reported as -0.25. `O=c1[nH]c2ccccc2c(-c2ccccc2)c1-c1cc(-c2ccccc2)c2cc(Cl)ccc2n1` was tested, and the “% Inhibition” value was -1% and the Z score was 0.19. For `O=C(NCCc1cn2c(n1)CCCC2)NCC[C@H](O)c1ccccc1`, the “% Inhibition” value was -8% and the Z score was 1.52. In the case of `C[C@H]1Cc2ccc(CNC(=O)C3CCC3)cc2N1C(=O)c1ccccc1`, the “% Inhibition” value is reported as 11% and the Z score is reported as -1.31. For `CC(Nc1ccnc(Cc2ccccc2)n1)C1CCOC1` (configuration not stated), the “% Inhibition” value was -4% and the Z score was 0.38. With `CCOCc1nc(CCS(=O)(=O)c2ccc(C)cc2)no1` the “% Inhibition” value was -16% and the Z score was 1.59. `CCc1cnc(N)nc1N[C@H]1CC(=O)N(c2ccc(F)cc2)C1` was tested, and the “% Inhibition” value was 4% and the Z score was -0.59. In the case of `O=C(C(=O)N1CCN(Cc2ccncc2)[C@@H]2CS(=O)(=O)C[C@@H]21)c1ccco1`, the “% Inhibition” value is reported as -1% and the Z score is reported as 0.11. For `CCN1CCC[C@@H]1CN(C)C(=O)c1ncoc1-c1ccc2c(c1)OCCO2`, the “% Inhibition” value was -3% and the Z score was 0.44. In the case of `COC(=O)[C@@H]1CCCN1C(=O)c1c(CC2CCCC2)n(Cc2cccnc2)c(C)cc1=O`, the “% Inhibition” value is reported as 19% and the Z score is reported as -2.47. For `O=C1[C@@H]2CCCCN2C(=O)N1CC1(c2ccccc2F)CC1`, the “% Inhibition” value was -23% and the Z score was 3.48. `COc1cc(CNC(=O)C2C3CCCCC32)ccc1C(=O)O` (configuration not stated) was tested, and the “% Inhibition” value was -16% and the Z score was 1.51. `N=C1Cc2ncnn2C(n2nc(-c3ccc(F)cc3)cc2C(F)(F)F)=NN1` was tested, and the “% Inhibition” value was -9% and the Z score was 1.34. For `O=C(CNC1CC1)NCc1cc(F)cc(C(F)(F)F)c1`, the “% Inhibition” value was -19% and the Z score was 1.72. In the case of `Cc1nc[nH]c1CNc1cc(C(=O)N2CCc3ccccc3C2)cc(S(=O)(=O)N(C)C)c1`, the “% Inhibition” value is reported as -17% and the Z score is reported as 1.95. With `C=CCN(CC=C)C(=O)NCc1nc(C)c(C)s1` the “% Inhibition” value was -9% and the Z score was 1.37. For `CC(C)c1nc(CC(=O)NCCc2ncn(C)n2)cs1`, the “% Inhibition” value was -11% and the Z score was 1.82. In the case of `CCc1ccc(C2CN3C(=O)N(c4cccc5ccccc45)C(=O)[C@]3(C)c3[nH]c4ccccc4c32)cc1` (some centres not stated), the “% Inhibition” value is reported as -13% and the Z score is reported as 1.66. In the case of `CCC(C)Oc1ccc(NC(=O)NCC2CCCOC2)cc1` (configuration not stated), the “% Inhibition” value is reported as 1% and the Z score is reported as -0.24. With `Cc1nccc(NC(=O)c2nn(C(C)C)cc2Br)n1` the “% Inhibition” value was -5% and the Z score was 1.04. With `c1cnc(-c2ccnc(N[C@H]3CCCC34CCOCC4)n2)cn1` the “% Inhibition” value was 9% and the Z score was -1.12. `Cc1occc1C(=O)NC1CCN(C(=O)c2cc(F)cc3cccnc23)CC1` was tested, and the “% Inhibition” value was -12% and the Z score was 1.73. For `CCC1(CC)C(NC(=O)CCN2CCN(C(C)C)CC2)CC1OC` (configuration not stated), the “% Inhibition” value was 9% and the Z score was -1.7. In the case of `O=C(Nc1nc2ccccn2n1)C12CCC(C(F)(F)F)(CC1)CC2`, the “% Inhibition” value is reported as 0% and the Z score is reported as 0.08. With `CN1C(=O)C(C)(C)c2cc(S(=O)(=O)N(C)CC(=O)NC3CCCCCC3)ccc21` the “% Inhibition” value was -15% and the Z score was 2.97. With `CN1N=C(C(=O)Nc2ccccc2CN2CCCCC2)CCC1=O` the “% Inhibition” value was -13% and the Z score was 2.06. With `Cc1nn(C)c(C)c1CNC(=O)Nc1ccc2nscc2c1` the “% Inhibition” value was -1% and the Z score was 0.11. `COc1cccc(C(=O)N2CCC[C@H](c3nc(-c4ccncc4)ncc3-c3ccccc3C)C2)c1OC` was tested, and the “% Inhibition” value was 13% and the Z score was -1.69. For `COC(=O)N1CCCC(NC2CCc3c(OC)cccc32)C1` (configuration not stated), the “% Inhibition” value was -10% and the Z score was 1.28. For `COC[C@@H]1CCCN1C(=O)NCc1ccc(S(N)(=O)=O)cc1`, the “% Inhibition” value was -18% and the Z score was 2.93. For `CCOc1ccc(OCC)c(NS(=O)(=O)c2cc(-c3c(C)noc3NC(C)=O)ccc2OC)c1`, the “% Inhibition” value was 14% and the Z score was -2.02. In the case of `COCC[C@](C)(O)CNC(=O)c1ccccc1Cl`, the “% Inhibition” value is reported as -6% and the Z score is reported as 1.11. In the case of `CCCOc1ccccc1CCNC(=O)N1CCC2(CCC(=O)N2)CC1`, the “% Inhibition” value is reported as 2% and the Z score is reported as -0.3. For `O=C(NCc1cccc(F)c1)N1CCC([C@@H](O)CCc2ccccc2)CC1`, the “% Inhibition” value was 7% and the Z score was -0.92. For `CCC1CC(CC(=O)NC2CC(O)C2(C)C)CCO1` (configuration not stated), the “% Inhibition” value was -6% and the Z score was 1.02. With `CN1CCO[C@@H](CNCc2cccc3ccccc23)C1` the “% Inhibition” value was -9% and the Z score was 1.25. In the case of `C#CCN(Cc1nc2cc(Br)cnc2[nH]1)Cc1ccco1`, the “% Inhibition” value is reported as 6% and the Z score is reported as -0.72. With `C[C@@H](CCc1ccccc1)NC(=O)C(=O)c1cccn1C` the “% Inhibition” value was 3% and the Z score was -0.49. For `COc1cc(NC(=O)N(C)[C@@H](C)Cc2ccsc2)ncn1`, the “% Inhibition” value was 6% and the Z score was -0.77. `CC(C)(C)n1nnc(Cn2cc(Cl)ccc2=O)n1` was tested, and the “% Inhibition” value was -2% and the Z score was 0.41. In the case of `Cc1nc(N(C)C2CCCCC2)ncc1[C@H](C)NC(=O)c1ccoc1C`, the “% Inhibition” value is reported as -11% and the Z score is reported as 0.95. In the case of `Cc1ccccc1OCC(O)CN1CCc2sccc2C1C` (configuration not stated), the “% Inhibition” value is reported as -4% and the Z score is reported as 0.75. In the case of `O=C(CN(Cc1ccc(O)cc1)Cc1ccco1)NC1CCOCC1`, the “% Inhibition” value is reported as 0% and the Z score is reported as -0.08. In the case of `CC1CCCC(OCC(=O)NCCC(=O)N2CCCCCC2)C1` (configuration not stated), the “% Inhibition” value is reported as -7% and the Z score is reported as 1.16. `COc1ccc(NC(=O)Cn2nc3c4sc(N5CCCCC5)nc4ncn3c2=O)cc1` was tested, and the “% Inhibition” value was -7% and the Z score was 0.66. In the case of `Cc1ccc(Cc2ccccc2C(=O)N2CCN(C)C(=O)[C@@H]2C)cc1F`, the “% Inhibition” value is reported as -6% and the Z score is reported as 1.18. With `N#Cc1ccc(NCc2ccc(N3CCNC(=O)C3)cc2)nc1` the “% Inhibition” value was -5% and the Z score was 0.51. With `Nc1nc(Cc2ccccc2)c(Br)c(=O)[nH]1` the “% Inhibition” value was 34% and the Z score was -0.46. With `Cc1cc(N(C)C)ccc1NC(=O)CCN1C(=O)c2ccccc2N2C(=O)CC[C@]12C` the “% Inhibition” value was 2% and the Z score was -0.43. `CC(C)c1cnc(CN[C@@H](C)c2ccc(S(C)(=O)=O)c(F)c2)o1` was tested, and the “% Inhibition” value was -4% and the Z score was 0.52. `N[C@@H](CC(=O)O)Cc1cc(F)c(F)cc1F` was tested, and the “% Inhibition” value was -7% and the Z score was 1.34. In the case of `CC[C@H](C)C(=O)Nc1ccc(C(C)(C)C#N)cc1`, the “% Inhibition” value is reported as -8% and the Z score is reported as 1.03. With `Cc1cccc(-c2ocnc2C(=O)N2CC[C@H](CO)[C@H](NC(=O)c3ccccc3)C2)c1` the “% Inhibition” value was -13% and the Z score was 1.71. In the case of `Cc1nnc(C(=O)NCc2ccc(N)nc2)s1`, the “% Inhibition” value is reported as 0% and the Z score is reported as 0.05. With `CCNc1nc(C)c(C(=O)N(CC)[C@H]2COC[C@@H]2O)s1` the “% Inhibition” value was -7% and the Z score was 0.97. `COc1ccc(F)cc1C(=O)CN1C(=O)CN(c2ccccc2)C1=O` was tested, and the “% Inhibition” value was -12% and the Z score was 1.68. With `Cc1noc(C)c1CC(=O)Nc1ccnc(C2CCCC2)n1` the “% Inhibition” value was -8% and the Z score was 0.74. With `CC[C@H](C)n1cc(C(=O)NCc2cccc(C(F)(F)F)c2)c(=O)c(C(=O)N2CCCCCC2)c1` the “% Inhibition” value was -13% and the Z score was 1.81. With `COc1ccc(C[C@H](NC2CCOCC2)c2ccccc2)cc1OC` the “% Inhibition” value was -7% and the Z score was 0.61. In the case of `CCC/C=C/c1ccc(NS(C)(=O)=O)nc1`, the “% Inhibition” value is reported as -7% and the Z score is reported as 0.99. In the case of `O=C(C1CCCC1)N1CCc2onc(-c3ccccc3)c2C1`, the “% Inhibition” value is reported as -8% and the Z score is reported as 1.4. `O=C(NCC1CCc2ccccc2CC1)Nc1ccn(CCc2ccncc2)n1` was tested, and the “% Inhibition” value was -6% and the Z score was 0.92. With `Cc1cccc(C)c1NC(=O)CN1C[C@H]2CCS(=O)(=O)[C@H]2C1` the “% Inhibition” value was -7% and the Z score was 0.78. `Cc1cnn(CCCN2C[C@@H]3CC[C@H]2CN(C(=O)c2ccccn2)C3)c1` was tested, and the “% Inhibition” value was 0% and the Z score was 0. With `COC(=O)CCC(=O)N1CCc2onc(-c3ccccc3F)c2C1` the “% Inhibition” value was -22% and the Z score was 1.9. For `CC(=O)N1CCN(C(=O)[C@H](C)NC(=O)c2cc3n(n2)CCCN(Cc2ccc(C)cc2)C3=O)CC1`, the “% Inhibition” value was -5% and the Z score was 0.45.
